{"source": "the supplement of paper PMC3334620", "note": "Whole data set: some 33,000 sequences, median “E-score (-0.5 to 0.5)” near -0.017, cut for the highest 2% near 0.3. The list shows a part of the results."}
{"target": "T1, Sut1 (UniProt P53032)", "T1 sequence": "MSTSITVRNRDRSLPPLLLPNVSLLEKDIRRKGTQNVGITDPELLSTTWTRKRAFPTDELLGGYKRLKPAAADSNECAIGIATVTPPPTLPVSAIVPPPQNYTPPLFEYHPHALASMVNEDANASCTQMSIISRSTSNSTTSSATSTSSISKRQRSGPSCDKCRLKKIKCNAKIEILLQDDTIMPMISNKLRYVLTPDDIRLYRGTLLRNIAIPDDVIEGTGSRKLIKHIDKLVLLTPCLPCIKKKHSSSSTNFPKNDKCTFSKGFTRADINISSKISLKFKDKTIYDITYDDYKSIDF", "experiment": "PBM E-score (8-mer binding enrichment) (E-score (-0.5 to 0.5)); higher = stronger / more preferred TF binding; most listed sequences are background and not binding sites", "details": "protein concentration: 200 nM; construct: GST-full length", "method_in_brief": "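Each ungapped eight-base word and its reverse complement, pooled, received an E-score from the Universal PBM Analysis Suite. Underlying scans, normalised with masliner, recorded fluorescent anti-GST bound to GST-tagged yeast transcription factors. These were applied at about 100-200 nM to universal all-10-mer Agilent arrays double-stranded by primer extension.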"}
{"sequence": "GCGTAGAC", "PBM E-score": -0.135}
{"sequence": "ATGTGGAC", "PBM E-score": -0.0954}
{"sequence": "CTACTTGA", "PBM E-score": -0.145}
{"sequence": "ATGGACGA", "PBM E-score": 0.0709}
{"sequence": "GCTCTAGA", "PBM E-score": -0.125}
{"sequence": "CCTTCTTA", "PBM E-score": -0.0123}
{"sequence": "GGCAGCCA", "PBM E-score": -0.102}
{"sequence": "CACAACCG", "PBM E-score": 0.0517}
{"sequence": "ATAAGATC", "PBM E-score": 0.00037}
{"sequence": "CAGATCCC", "PBM E-score": -0.176}
{"sequence": "AGGACCGG", "PBM E-score": 0.0365}
{"sequence": "GGACCGGA", "PBM E-score": 0.34}
{"sequence": "CTGGACGC", "PBM E-score": -0.304}
{"sequence": "CGTGAAGA", "PBM E-score": -0.026}
{"sequence": "GAATATCA", "PBM E-score": 0.0118}
{"sequence": "ACCAAAAC", "PBM E-score": 0.0916}
{"sequence": "TAACACTA", "PBM E-score": 0.224}
{"sequence": "ATGTCTCC", "PBM E-score": 0.123}
{"sequence": "ACCGGGAG", "PBM E-score": -0.0335}
{"sequence": "AGTGCGGG", "PBM E-score": 0.0372}
{"sequence": "CATGCTCC", "PBM E-score": -0.217}
{"sequence": "AGTACTAG", "PBM E-score": -0.00814}
{"sequence": "TGGAAAAA", "PBM E-score": 0.119}
{"sequence": "CGACCAAG", "PBM E-score": -0.158}
{"sequence": "AGAACAGA", "PBM E-score": 0.126}
{"sequence": "CTTTTGAC", "PBM E-score": 0.0348}
{"sequence": "GAGAATCA", "PBM E-score": 0.0959}
{"sequence": "TATCCGCA", "PBM E-score": 0.169}
{"sequence": "GATGTCAA", "PBM E-score": 0.0214}
{"sequence": "CATGGGGA", "PBM E-score": -0.257}
{"sequence": "ATTCCAGA", "PBM E-score": -0.00019}
{"sequence": "GAAGTGGC", "PBM E-score": -0.21}
{"sequence": "CGTTTGTA", "PBM E-score": 0.163}
{"sequence": "CCTACGGA", "PBM E-score": 0.0511}
{"sequence": "GCCGTTTA", "PBM E-score": 0.129}
{"sequence": "CCGACATC", "PBM E-score": -0.0523}
{"sequence": "ATGTTCAC", "PBM E-score": -0.122}
{"sequence": "AGGCGCTG", "PBM E-score": 0.0651}
{"sequence": "CTCTTCAG", "PBM E-score": -0.134}
{"sequence": "CGTTATTA", "PBM E-score": 0.143}
{"sequence": "ACAAGGAC", "PBM E-score": -0.0266}
{"sequence": "CTCGTCTC", "PBM E-score": -0.114}
{"sequence": "AGACCTCC", "PBM E-score": -0.207}
{"sequence": "CAAGCATC", "PBM E-score": -0.0747}
{"sequence": "ATCTGGTA", "PBM E-score": -0.127}
{"sequence": "GTAAGTTA", "PBM E-score": 0.123}
{"sequence": "ACGTACGC", "PBM E-score": -0.148}
{"sequence": "ATGCATGG", "PBM E-score": -0.0121}
{"sequence": "TATATATA", "PBM E-score": 0.381}
{"sequence": "AGGGAATA", "PBM E-score": 0.0626}
{"sequence": "CAGGTGCA", "PBM E-score": -0.128}
{"sequence": "GTGAGCAC", "PBM E-score": -0.201}
{"sequence": "CAAATCGG", "PBM E-score": 0.0756}
{"sequence": "CAACATAA", "PBM E-score": 0.19}
{"sequence": "CACGATCG", "PBM E-score": -0.0348}
{"sequence": "AATGGGAC", "PBM E-score": -0.19}
{"sequence": "CGGGACCC", "PBM E-score": -0.191}
{"sequence": "ATTATGAC", "PBM E-score": 0.2}
{"sequence": "CTTGAGGA", "PBM E-score": 0.0322}
{"sequence": "AGCGCCCC", "PBM E-score": -0.311}
{"sequence": "CTTTGTTA", "PBM E-score": 0.216}
{"sequence": "CACGCTCG", "PBM E-score": -0.147}
{"sequence": "AGTGCAAA", "PBM E-score": 0.174}
{"sequence": "ACCCGTCA", "PBM E-score": -0.145}
{"sequence": "AAATACAC", "PBM E-score": 0.0774}
{"sequence": "CAACTGCA", "PBM E-score": -0.00961}
{"sequence": "CGGTGAAC", "PBM E-score": -0.0444}
{"sequence": "CGATATAG", "PBM E-score": -0.0446}
{"sequence": "ACGTCACA", "PBM E-score": 0.00675}
{"sequence": "CACGTCTG", "PBM E-score": -0.127}
{"sequence": "CAGCTAGG", "PBM E-score": -0.236}
{"sequence": "GCGGAACA", "PBM E-score": -0.11}
{"sequence": "GGGCGACC", "PBM E-score": -0.18}
{"sequence": "AGGGTTAG", "PBM E-score": -0.209}
{"sequence": "CGGACTCC", "PBM E-score": 0.475}
{"sequence": "ACATATGA", "PBM E-score": 0.0703}
{"sequence": "GTCGTCCA", "PBM E-score": -0.127}
{"sequence": "AAGACCGG", "PBM E-score": 0.13}
{"sequence": "CGATAAAA", "PBM E-score": 0.303}
{"sequence": "ACCCTTAC", "PBM E-score": -0.129}
{"sequence": "CCTCAGGC", "PBM E-score": -0.223}
{"sequence": "AACCTTGC", "PBM E-score": -0.0267}
{"sequence": "CTTTCAAC", "PBM E-score": -0.0409}
{"sequence": "GATGAATA", "PBM E-score": 0.208}
{"sequence": "AAACAGCT", "PBM E-score": -0.0346}
{"sequence": "GAAGCAGA", "PBM E-score": 0.0478}
{"sequence": "GAAGCCAC", "PBM E-score": -0.0595}
{"sequence": "AGGTACGA", "PBM E-score": -0.171}
{"sequence": "CACACTTC", "PBM E-score": -0.167}
{"sequence": "CCCGTCAA", "PBM E-score": -0.077}
{"sequence": "AGTAGACA", "PBM E-score": 0.16}
{"sequence": "CATTGCCG", "PBM E-score": 0.0441}
{"sequence": "AACCTAAA", "PBM E-score": 0.168}
{"sequence": "AGATGATA", "PBM E-score": 0.175}
{"sequence": "AGCAGGAG", "PBM E-score": -0.0481}
{"sequence": "ATTGTGTA", "PBM E-score": 0.105}
{"sequence": "AGAGTCAG", "PBM E-score": -0.274}
{"sequence": "GTGTCGAA", "PBM E-score": -0.283}
{"sequence": "CCACCACA", "PBM E-score": -0.00498}
{"sequence": "CCGACTTA", "PBM E-score": 0.0927}
{"sequence": "AACAAAGG", "PBM E-score": 0.133}
{"sequence": "CTTTTTGA", "PBM E-score": 0.133}
{"sequence": "CCTTGACA", "PBM E-score": -0.179}
{"sequence": "CGCTGTTA", "PBM E-score": -0.199}
{"sequence": "AATGTGTG", "PBM E-score": 0.0166}
{"sequence": "ACTTAGCC", "PBM E-score": -0.129}
{"sequence": "ACATATCT", "PBM E-score": 0.181}
{"sequence": "AACCCTGG", "PBM E-score": -0.228}
{"sequence": "AGTGGGTG", "PBM E-score": -0.0438}
{"sequence": "GTTCTTGA", "PBM E-score": 0.0691}
{"sequence": "GCGTCGAC", "PBM E-score": -0.061}
{"sequence": "CATCCATC", "PBM E-score": 0.0878}
{"sequence": "CATGTTCA", "PBM E-score": -0.101}
{"sequence": "AATCCTGA", "PBM E-score": -0.0303}
{"sequence": "CCGAGTGC", "PBM E-score": -0.108}
{"sequence": "CCCTTACA", "PBM E-score": -0.0257}
{"sequence": "CGTATACA", "PBM E-score": 0.0538}
{"sequence": "CACGAATC", "PBM E-score": -0.0216}
{"sequence": "ATCGTTCG", "PBM E-score": 0.0986}
{"sequence": "GAGCCCTA", "PBM E-score": -0.0005}
{"sequence": "ATTAGTAA", "PBM E-score": 0.23}
{"sequence": "CTATTCCC", "PBM E-score": -0.00426}
{"sequence": "ATTGGGAA", "PBM E-score": 0.061}
{"sequence": "GCGGCCCA", "PBM E-score": 0.00935}
{"sequence": "GACGTTCA", "PBM E-score": -0.106}
{"sequence": "TGCTTTAA", "PBM E-score": 0.0926}
{"sequence": "CTACATTC", "PBM E-score": 0.146}
{"sequence": "GCCCGTCA", "PBM E-score": -0.378}
{"sequence": "GGAAAACC", "PBM E-score": -0.155}
{"sequence": "CTGGAAAC", "PBM E-score": -0.0136}
{"sequence": "GCTACACA", "PBM E-score": -0.143}
{"sequence": "CAGCGCGC", "PBM E-score": -0.173}
{"sequence": "AACGACTC", "PBM E-score": -0.178}
{"sequence": "ACCGGCAG", "PBM E-score": -0.318}
{"sequence": "CACTTCTG", "PBM E-score": -0.216}
{"sequence": "GCTACGAC", "PBM E-score": -0.123}
{"sequence": "AGCTGCTA", "PBM E-score": -0.129}
{"sequence": "CACTAATC", "PBM E-score": 0.215}
{"sequence": "CATTTTTA", "PBM E-score": 0.0566}
{"sequence": "AATGAATC", "PBM E-score": 0.00339}
{"sequence": "CATGAGTC", "PBM E-score": -0.0171}
{"sequence": "TAGAGCCA", "PBM E-score": -0.239}
{"sequence": "TACATGCA", "PBM E-score": -0.0893}
{"sequence": "AACGAATC", "PBM E-score": 0.142}
{"sequence": "CCAGCCTA", "PBM E-score": -0.336}
{"sequence": "CCGTGTTC", "PBM E-score": 0.11}
{"sequence": "TACTCAAA", "PBM E-score": 0.131}
{"sequence": "ACTTTGCA", "PBM E-score": 0.133}
{"sequence": "ACCGATCA", "PBM E-score": 0.12}
{"sequence": "ATTGGTAC", "PBM E-score": 0.111}
{"sequence": "ACCCAACT", "PBM E-score": -0.145}
{"sequence": "CAATAAAC", "PBM E-score": 0.169}
{"sequence": "AATTGTTA", "PBM E-score": 0.272}
{"sequence": "CAAAAACA", "PBM E-score": 0.0332}
{"sequence": "AATGCTCG", "PBM E-score": 0.0401}
{"sequence": "AACCCCGC", "PBM E-score": 0.187}
{"sequence": "CCCTTCCA", "PBM E-score": -0.145}
{"sequence": "ACGATATC", "PBM E-score": 0.082}
{"sequence": "GATTGAAC", "PBM E-score": 0.00278}
{"sequence": "ACATATCC", "PBM E-score": 0.107}
{"sequence": "ACTGTTCC", "PBM E-score": 0.0578}
{"sequence": "TAGATGCA", "PBM E-score": -0.00816}
{"sequence": "GAGCCTCC", "PBM E-score": -0.0929}
{"sequence": "AGCTTTGC", "PBM E-score": 0.00053}
{"sequence": "ACGAGAAA", "PBM E-score": 0.158}
{"sequence": "AAGTCCCG", "PBM E-score": 0.0188}
{"sequence": "AAATTGTC", "PBM E-score": 0.0917}
{"sequence": "AAGTTAAT", "PBM E-score": 0.272}
{"sequence": "ACGTTACA", "PBM E-score": 0.0879}
{"sequence": "CGGGCTAG", "PBM E-score": -0.0775}
{"sequence": "GGTGGAAC", "PBM E-score": 0.0659}
{"sequence": "TCTCGAAA", "PBM E-score": 0.0302}
